Measured values from PubChem BioAssay AID485344 (National Center for Advancing Translational Sciences (NCATS), 2010).
About 6,900 (2%) of roughly 340,000 compounds were called active. No stated cut-off is given here; in the data, active means inhibition above about 30%; inactive means below that, where a call was filed. The list shows a part of the results, in another mix than the full data. Entries without a call were filed so in the source.

Each compound was assayed against D(2) dopamine receptor (Homo sapiens) (UniProt P14416) (assay: HTS Assay for Allosteric Antagonists of the Human D2 Dopamine Receptor: Primary Screen for Antagonists). Conditions: HEK293 TREx D2 cells, calcium flux, dopamine EC80; at 10 µM; stronger effect = higher value.
Method in brief: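 Calcium mobilization kinetics were recorded at 1 s intervals in tetracycline-induced HEK293 T-REx D2 cells, first for 180 s after compound addition and then 180 s after EC80 dopamine.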
Further: 0% is about no effect.

UniProt P14416, sequence (P14416 whole entry, looked up): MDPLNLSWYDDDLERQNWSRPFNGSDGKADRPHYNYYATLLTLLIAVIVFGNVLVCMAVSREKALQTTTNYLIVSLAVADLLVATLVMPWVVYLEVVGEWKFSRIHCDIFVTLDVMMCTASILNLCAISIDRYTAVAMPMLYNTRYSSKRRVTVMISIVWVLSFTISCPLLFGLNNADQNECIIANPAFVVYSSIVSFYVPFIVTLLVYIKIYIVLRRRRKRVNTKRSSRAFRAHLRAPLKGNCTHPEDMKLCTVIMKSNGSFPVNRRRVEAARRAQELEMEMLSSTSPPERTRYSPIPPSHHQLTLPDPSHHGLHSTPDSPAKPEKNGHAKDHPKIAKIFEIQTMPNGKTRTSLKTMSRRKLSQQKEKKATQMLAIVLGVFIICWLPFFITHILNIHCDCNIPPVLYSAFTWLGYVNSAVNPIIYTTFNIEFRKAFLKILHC

Structure (SMILES)	inhibition
COc1ccc(-c2c(C)nn3c(C(F)(F)F)cc(C)nc23)cc1OC	11.4%
COc1cccc(CNCCCSc2nnnn2C)c1	-13.1%
Cc1ccccc1CN1C(=O)c2ccccc2S(=O)c2ccc(C(=O)NCc3ccccc3)cc21 (stereo unspecified)	16.2%
COc1ccc(CCNC(=O)CCc2c(C)nc3c(-c4ccc(F)cc4)c(C)nn3c2C)cc1OC	5.88%
Cc1ccc(-n2c(SCc3nc(-c4ccc(Cl)cc4)no3)nnc2-c2ccncc2)cc1	-5.71%
COc1ccc(S(N)(=O)=O)cc1C(=O)NCCCN1CCN(c2ccc(C)cc2)CC1	active: 48.6%
CCc1ccc(NC(=O)CN(c2ccc(C)cc2)S(=O)(=O)c2c(C)nn(C)c2C)cc1	-5.08%
COc1ccc(C(=O)NCC(c2cccnc2)N2CCN(c3ccccc3F)CC2)cc1OC (stereo unspecified)	7.14%
CCC(=O)N1CCc2cc(S(=O)(=O)CCC(=O)NCc3ccccc3Cl)ccc21	-0.722%
CCCc1nn2c(=O)cc(COC(=O)c3ccccc3NC(=O)C3CCCCC3)nc2s1	-4.23%
Cc1ccc(NC(=O)C2CCN(S(=O)(=O)c3cccs3)CC2)cc1	9.24%
COC(=O)c1c(C)sc(-c2c(-c3ccc(F)cc3)[nH]c3[nH]c(=O)[nH]c(=O)c23)c1O	1.32%
COc1ccc(NC(=O)C2=C(C)Nc3c(C(=O)Nc4ccc(C)cc4)cnn3C2c2cccc(Cl)c2)cc1 (stereo unspecified)	-4.01%
CCCCN(CC)C(=O)c1c[nH]c2ccc(S(=O)(=O)Nc3cccc(OC)c3)cc2c1=O	-15.8%
CN(Cc1ccccc1)C(=C(Cl)Cl)C(=C1NCCN1)[N+](=O)[O-]	active: 33.6%
COc1ccc(NC(=O)CC2Nc3cccc4cccc(c34)NC2=O)cc1 (stereo unspecified)	11.6%
Cn1nnnc1SCC(=O)N1CCCc2ccccc21	active: 40.6%
Cc1ccc2oc(-c3cccc(NC(=O)c4cccc5c(Br)cccc45)c3)nc2c1	9.76%
COc1ccc(-c2cc(C)no2)cc1S(=O)(=O)N1CCN(c2ccc(C(C)=O)cc2)CC1	-3.52%
Cc1ccc2onc(CC(=O)N3CCN(c4ccccc4F)CC3)c2c1	-11.3%
Cc1oc2ccc(O)c(CN3CCOCC3)c2c1C(=O)Nc1ccc(C(C)C)cc1	1.93%
CC(=O)N1c2ccccc2CC1C(=O)N1CCN(c2cccc(C)c2C)CC1 (stereo unspecified)	-15.8%
Clc1ccccc1CSc1nncn2c1cc1occc12	9.79%
O=C(CCCn1c(=O)c2cccn2c2ccccc21)Nc1cccc(Cl)c1	12.9%
Cc1ccc(N(CC(=O)NCCSc2nc3ccccc3s2)S(=O)(=O)c2ccccc2)c(C)c1	active: 55.1%
CCOc1ccccc1CNC(=O)CCCn1c(=O)c2cccn2c2cccnc21	-5.53%
